# The campaign covered roughly 360,000 compounds. About 17,000 (4.7%) were called active. Inconclusive means that the source gave no clear call. Such entries were picked first, then a sample of the others. Cut-off read from the data, not from the text of the source: active = activity change below about -50%; inconclusive = mostly about -30% to -49%; inactive = weaker than that.
# Experiment: qHTS for Inhibitors of Inflammasome Signaling: IL-1-beta AlphaLISA Primary Screen
# Conditions: THP-1 LPS/ATP IL-1B secretion, 16 h; at 57.5 µM, hits give low values
# Summary of the method: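 THP-1 cells pretreated 1 hr with compounds (up to 57.5 uM final), then stimulated with LPS (250 ng/mL final) plus ATP (1.25 mM final); secreted IL-1B measured by AlphaLISA after 16 hr, decreased signal indicating inhibition.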
# % is set by controls: 0 for no effect and ±100 for the full control effect.
row,SMILES,activity change
1,COc1ccc(S[C@@H](CCN2CC[C@H](C)CCC2=O)c2ccccc2)cc1,inconclusive: -46.3%
2,COc1ccc(NC(=O)CSc2nc3sc(C)cc3c(=O)n2C)c(OC)c1,inactive: 36.7%
3,CC1(NC(=O)N2CCCCC2)CCS(=O)(=O)C1 (stereo unspecified),inactive: 5.98%
4,Cc1cccc(-n2c(CCCN3C(=O)c4ccccc4C3=O)nc3ccccc3c2=O)n1,inactive: 8.57%
5,CC(C)=CC(O)C/C(C)=C/COc1ccc2ccc(=O)oc2c1 (stereo unspecified),inconclusive: -43.9%
6,O=C(Cc1ccccc1)NCCSCc1ccccc1,inactive: -2.63%
7,COc1ccc(-c2nnc(-c3ccc(N(C)C)cc3)o2)cc1,inconclusive: -40.8%
8,C[C@@H]1CN([C@H](C)CO)C(=O)Cc2cc(NC(=O)Cn3cnnn3)ccc2O[C@@H]1CN(C)Cc1ccc(Cl)c(Cl)c1,active: -59.2%
9,NC(=S)NN=C1CCCCCCCC1,inactive: -3.83%
10,CC(C)(C)n1nnnc1C(c1ccc(C#N)cc1)N1CCCC2(CCCCC2)C1 (stereo unspecified),inconclusive: -45%
11,CCCc1nc(SCC(=O)Nc2ccc(S(=O)(=O)N(C)C)cc2)c2ccccc2n1,inactive: -11.4%
12,CCN(CC)S(=O)(=O)c1ccc(Cl)c(NC(=O)COC(=O)c2cccn2C)c1,inconclusive: -31.7%
13,O=C(Nc1ccc(Nc2ccccc2)cc1)c1ccc(Cl)cc1Cl,inconclusive: -46.3%
14,COc1ccccc1NC(=O)Nc1nn(C)c2cccc(N(C)C)c12,inconclusive: -44.8%
15,COc1cccc(-c2cnc3c(NC(C)=O)cc(-c4ccc(OC)c(OC)c4)cn23)c1,inconclusive: -46.5%
16,CN1CCC(=C2c3ccccc3Sc3ccccc32)CC1,inconclusive: -42.4%
17,Cc1ccc(NC(=O)c2nc[nH]c2C(=O)N[C@H](C)c2ccccc2)cc1,inconclusive: -37%
18,COc1ccc(CNC(=S)Nc2ccccc2)cc1Cl,inconclusive: -38.4%
19,CC(C)C(=O)Nc1cccc(-c2cnc3ccccc3n2)c1,inactive: 22.2%
20,CC1CCN(C(=O)c2[nH]cnc2C(=O)Nc2ccccc2F)CC1,inconclusive: -40%
21,Clc1cccc(CNc2ccn3nc(-c4ccccc4Cl)cc3n2)c1,active: -73.4%
22,NCCCC[C@@H]1NC(=O)[C@H](CCC(=O)O)NC(=O)c2cc([N+](=O)[O-])cc(I)c2OCC[C@@H](C(N)=O)NC1=O,inactive: 15%

row,SMILES,activity change
1,Cc1ccc(NC(=O)Cc2ccc(-c3ccccc3)cc2)nc1,active: -60.3%
2,CCCOc1ccc(N)cc1N,inconclusive: -46.5%
3,CN(C)c1nc(N/N=C/c2c[nH]c3ccccc23)nc(N2CCOCC2)n1,inconclusive: -31.3%
4,CC(C)NC(=O)C1(C)CCN1C(=O)c1ccccc1Oc1ccccc1 (stereo unspecified),inactive: -0.13%
5,COc1ccc(-c2csc(NC(=O)CS(=O)(=O)c3ccc(F)cc3)n2)cc1OC,inconclusive: -42.4%
6,Cc1cc(S(=O)(=O)N2CCOCC2)ccc1OCC(=O)NCc1ccccn1,inactive: 7.92%
7,O=C(NC1CCN(Cc2ccccc2)CC1)c1cc(Br)c(Br)[nH]1,active: -123%
8,Cc1cccc(NC(=O)c2sc3nc(N)c(C#N)cc3c2N)c1,inconclusive: -34.6%
9,COc1ccc(O)c(C(=O)c2cc(C(=O)NCCc3ccccc3)c(=O)n(CCc3ccccc3)c2)c1,inactive: -13.9%
10,O=C(Nc1ccc(F)c([N+](=O)[O-])c1)C1CC(=O)N(Cc2ccccc2)C1 (stereo unspecified),active: -91%
11,COC1C(CO)OC(n2c3c(Cl)cccc3c3c4c(c5c6cccc(Cl)c6[nH]c5c32)C(=O)NC4=O)C(O)C1O (stereo unspecified),active: -63.1%
12,Cc1ccc(-c2nn3c(C)nnc3c3ccccc23)cc1S(=O)(=O)NCc1ccco1,inconclusive: -39.1%
13,CCOC(=O)c1oc2nc(CC(C)C)c3c(c2c1N)CCC3,inconclusive: -37.4%
14,Cc1ccc(S(=O)(=O)N2Cc3ccccc3CC2C(=O)Nc2ccc3c(c2)OCO3)cc1 (stereo unspecified),inconclusive: -40.3%
15,CC(C)N=C(N)N=C(N)Nc1ccc(Cl)cc1,inconclusive: -39.3%
16,O=C(c1ccc(NS(=O)(=O)c2ccccc2)cc1)N1CCN(Cc2ccc3c(c2)OCO3)CC1,inactive: -8.66%
17,C[C@@H](CN1CCC[C@H]1CN1C(N)=NC[C@@H]1Cc1ccccc1)N1C[C@@H](Cc2ccccc2)N(CCc2ccc(Cl)c(Cl)c2)C1=N,active: -65.9%
18,COc1cc2c(cc1NC(=O)C(C)OC(=O)/C=C/c1ccc(OC(F)F)cc1)oc1ccccc12 (stereo unspecified),inconclusive: -36.1%
19,CCOc1ccc2nc(N(CCN(C)C)C(=O)/C=C/c3cccs3)sc2c1,active: -71.3%
20,CC(=O)Nc1ccc(C2=CC(=O)C[C@H](c3ccc4c(c3)OCO4)C2)cc1,inconclusive: -44.6%
21,CC(C)(C)c1ccc(C(=O)N2CCC2(C)C(=O)NCCC#N)cc1 (stereo unspecified),inconclusive: -44.9%
22,CC(C)N(Cc1cn(C)nc1-c1cccc(Cl)c1)Cc1nccn1C,inconclusive: -46.4%

row,SMILES,activity change
1,Nc1nc2cc(S(=O)(=O)NC3=NCCCCC3)ccc2s1,inconclusive: -38.9%
2,c1ccc2[nH]c(SCc3cscn3)nc2c1,inconclusive: -41.9%
3,Cc1sc2ncnc(SCC(=O)N3CCN(C(=O)c4ccco4)CC3)c2c1C,active: -53.7%
4,CCCC(C)NC(=O)c1ccc(C2SCC(=O)N2Cc2ccco2)cc1 (stereo unspecified),inconclusive: -32.2%
5,Cc1cnnc2c1-c1nonc1CC2,inactive: 15.8%
6,COc1cccc(C(=O)Nc2ccc(NC(=O)c3ccco3)c(Cl)c2)c1,inconclusive: -45.5%
7,CN(CC(=O)Nc1cccc(F)c1)C(=O)c1cccc(S(=O)(=O)N2CC3(C)CC2CC(C)(C)C3)c1 (stereo unspecified),inconclusive: -31.3%
8,O=C(NNC(=O)c1cc(-c2ccco2)nc2ccccc12)c1ccccc1,inconclusive: -33.9%
9,Cc1ccc(S(=O)(=O)N2CCCCC2c2cccnc2)c(C)c1C (stereo unspecified),inactive: 0%
10,CC(C)n1c(NCc2ccc(Cl)cc2)nc2ccccc21,inconclusive: -40.8%
11,COc1ccc2cc3cc(C(=O)N4CCCCCC4)oc3nc2c1,inconclusive: -33.3%
12,Cc1ccccc1S(=O)(=O)NC(=O)C1(C)CCN1C(=O)c1cccc(F)c1 (stereo unspecified),inactive: -9.65%
13,O=C(Nc1ccnn1C1CCN(C/C=C/c2ccccc2)CC1)c1ccccc1,inconclusive: -36.7%
14,COc1ccc(C2CC(O)(c3ccccc3)Oc3cc(OC)cc(OC)c32)cc1 (stereo unspecified),inconclusive: -36.2%
15,CCn1c(SCC(=O)Nc2ccccc2C)nc2nc3c(cc2c1=O)COC(C)(C)C3,inconclusive: -42.5%
16,CCc1cc(C(c2ccc(F)cc2)N2CCOCC2)c(NC(=O)c2ccccc2)s1 (stereo unspecified),inconclusive: -46.9%
17,Brc1ccc(-c2csc3ncnc(-n4nnc5ccccc54)c23)cc1,inconclusive: -47.6%
18,COC(=O)[C@@]1(Sc2ccc(C)cc2)CC(=O)N[C@@H]1c1ccc(Br)cc1,inactive: 58%
19,COc1ccc(C(=O)C2CCN(C(=S)NCC3CCCO3)CC2)cc1 (stereo unspecified),inactive: -6.3%
20,Cn1cnc([N+](=O)[O-])c1Sc1ccc(Br)cc1,inconclusive: -43.6%
21,S=c1[nH]nc(-c2ccco2)n1/N=C/C(Cl)=C/c1ccccc1,inconclusive: -46.8%
22,CNC(=O)NC(=O)CN1C(=O)NC2(CCOc3ccccc32)C1=O (stereo unspecified),inactive: 10.5%

row,SMILES,activity change
1,O=C(Nc1cccc([N+](=O)[O-])c1)c1ccc2c(c1)OCCO2,inconclusive: -32.6%
2,O=C(c1ccc(CS(=O)c2cccc(Cl)c2)o1)N1CCN(c2ccccn2)CC1 (stereo unspecified),inactive: 82.5%
3,COc1ccc(CCN2CC(C(=O)NCc3nc(C)c(C)s3)CCC2=O)cc1 (stereo unspecified),inactive: 0%
4,COc1ccc(C(=O)NCc2ccc3c(c2)OCO3)cc1S(=O)(=O)NCc1ccc(Cl)cc1,inconclusive: -39%
5,Cn1ccnc1C(=O)Cc1ccc([N+](=O)[O-])cc1,inactive: -4.21%
6,O=S(=O)(c1cccc(Cl)c1)N1CCC(c2nc3ccccc3[nH]2)CC1,inactive: -13.5%
7,CC(C)=NOc1cc(NC(=O)CCl)cc([N+](=O)[O-])c1,active: -100%
8,C=C1C(=O)O[C@@H]2C[C@@H](C)[C@@H]3C=CC(=O)[C@@]3(C)[C@@H](OC(C)=O)[C@H]12,inconclusive: -41%
9,N#C/C(=C/c1ccc(-c2ccc(S(=O)(=O)N3CCOCC3)cc2)o1)C(=O)NC1CC1,inconclusive: -31.2%
10,CNC(=O)COc1ccccc1C(=O)Nc1ccc2c(c1)oc1ccccc12,active: -69.3%
11,Cc1ccc(C(CNS(=O)(=O)c2ccccc2)N2CCN(C)CC2)cc1 (stereo unspecified),inconclusive: -43.6%
12,Nn1c(SCC(=O)Nc2ccc(F)c(F)c2)nnc1C1CCCCC1,inconclusive: -35.5%
13,Cc1ccccc1Cn1c(CN2CCc3ccccc3C2)nc2c1c(=O)n(C)c(=O)n2C,active: -58.6%
14,Cn1cc(S(=O)(=O)N2CCOCC2)cc1C(=O)Nc1cccc(Cl)c1,inactive: -13.1%
15,CCOC(=O)c1ccc(NC(=O)CSc2nnc(CCc3ccc(C)o3)n2-c2ccccc2)cc1,inconclusive: -41.9%
16,COc1ccccc1CNCC(O)(c1ccc(Cl)cc1)c1ccc(Cl)cc1,inconclusive: -41.3%
17,CCc1ccc(Nc2c([N+](=O)[O-])c(=O)oc3ccccc23)cc1,inconclusive: -43.9%
18,COc1ccc(C2CC(c3ccc(F)cc3)=NN2c2ccccc2)cc1OC (stereo unspecified),inconclusive: -42.8%
19,O=C1c2ccccc2CN1CCSC(=S)N1CCOCC1,inconclusive: -31%
20,CN1c2ccccc2SC2C(c3ccccc3)=NOC21 (stereo unspecified),inactive: -2.59%
